About 830 (1.9%) of roughly 43,000 compounds were called active. This list was built around the results that the source calls inconclusive (neither active nor inactive); the mix of calls is not that of the screen. How the source made its calls: active means clear falling dose curves in both reporters; inconclusive means both reporters move, but less clearly or upward; inactive means either reporter flat; the % is the NLuc reporter signal. No potency is given beside an inconclusive call; the fits are too rough.
experiment: Cell-based coincidence reporter assay to measure PMP22 gene transcription in S16 Pmp22-F2sN cells - Primary screen; conditions: S16 Pmp22-F2sN Schwann cells (luciferase reporters placed in the Pmp22 gene), FLuc/NLuc coincidence luminescence, 24 h; measured here: NLuc reporter readout, at 57.5 µM (top of the series)
In short: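 Rat S16 Pmp22-F2sN cells, 500-1,000/well in phenol red-free DMEM + 10% FBS, compound-treated 24 h (37C, 5% CO2). Luminescence: FLuc read, Stop&Glo added, NLuc read.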
Potency means the concentration at half of the fitted maximal effect; tags describe the fitted curve by direction and shape.

SMILES	Potency
CCc1cccc(NC(=O)Cn2c(=O)n(CC3CCC(C(=O)NCCc4ccccc4)CC3)c(=O)c3ccccc32)c1 (centres undefined)	inconclusive [phenotype inactive, single point]
COC(=O)c1cc2sccc2n1Cc1ccccc1	inconclusive [phenotype inactive, single point]
CCc1ccc(N2C(=O)CS(=O)(=O)C23C(=O)N(Cc2ccccc2)c2ccccc23)cc1 (centres undefined)	inconclusive [phenotype inactive, single point]
CCOc1ccc(-c2c(C)nn3c(C)c(C(=O)NCC(C)c4ccccc4)cnc23)cc1OCC (centres undefined)	active: 16.8 µM
COc1ccc(Cn2c(C(=O)O)c(CNCCc3ccccc3Cl)c3ccc(C)cc32)cc1	inconclusive [phenotype inactive, single point]
COc1cccc(CNC(=O)Cn2c(=O)oc3cc(S(=O)(=O)N4CCC(C)CC4)ccc32)c1	inconclusive [phenotype inactive, partial curve]
COc1ccc(-n2nc3c(c2NC(=O)C(=O)N2CCN(C)CC2)CSC3)cc1	inconclusive [phenotype inactive, single point]
O=C(Nc1ccccc1C(F)(F)F)N1CCN(c2ccc3nnc(-c4ccc(F)cc4)n3n2)CC1	active: 16 µM
O=C(CCn1cnc2onc(-c3ccc(F)cc3)c2c1=O)N1CCN(c2cccc(Cl)c2)CC1	inconclusive [phenotype inactive, single point]
Cc1ccc(CNC(=O)c2c(-c3cccc(Br)c3)noc2C)o1	inconclusive [phenotype inactive, single point]
CC(C)COc1ccccc1C1CC(=O)Nc2cc3c(cc21)OCO3 (centres undefined)	active: 8.43 µM
COc1ccccc1CNC(=O)Cn1nc(C)c2nn(-c3ccc(Cl)cc3)c(C)c2c1=O	inactive
CCc1ccc(NC(=O)CSc2nnc(-c3cc4occc4n3C)n2-c2ccccc2C)cc1	inactive
Cc1ccc(CN(Cc2ccco2)C(=O)c2oc3c(C)c(C)ccc3c2C)cc1	inconclusive [phenotype inactive, single point]
COc1ccc(Cl)cc1NC(=O)c1c(NCc2ccc(C)o2)sc2c1CCCC2	inconclusive [phenotype inactive, single point]
Cc1cccc(OCC(=O)Nc2ccc3nc(Nc4cccc(Cl)c4)cc(C)c3c2)c1	inconclusive [phenotype inactive, single point]
CCOCCCn1c(=N)c(C(=O)NCC2CCCO2)cc2c(=O)n3cc(C)ccc3nc21 (centres undefined)	inactive
CCOC(=O)c1c(NC(=O)CSc2cn(CCNC(=O)c3ccccc3F)c3ccccc23)sc2c1CCCC2	inconclusive [phenotype inactive, single point]
COc1ccccc1NC(=O)C1CCC(CNS(=O)(=O)c2ccc3c(c2)CC(C)N3C(C)=O)CC1 (centres undefined)	active: 18.9 µM
Cc1ccc(NC(=O)Cn2c(=O)n(Cc3ccc4c(c3)OCO4)c(=O)c3ccc(C(=O)NC4CCCCC4)cc32)c(C)c1	active: 8.43 µM

SMILES	Potency
CCSc1ncc(Cl)c(C(=O)Nc2sc3c(c2C(=O)NC)CCCC3)n1	inactive
Cc1cc(=O)n(CC(=O)N2CCN(c3ccc(F)cc3)CC2)c2c1c(C)nn2C	inconclusive [phenotype inactive, single point]
CC(=O)c1ccc(N2CCN(C(=O)CCS(=O)(=O)c3ccc4c(c3)oc(=O)n4C)CC2)cc1	inactive
COc1ccc(N2CCN(c3csc4ccccc4c3=O)CC2)cc1	inactive
CCCN(CCC)CCCNC(=O)c1cc2c(=O)[nH]c3ccccc3c2n1C	inconclusive [phenotype inactive, partial curve]
CCOCCCNc1nc2cc(OC)c(OC)cc2c2nc(-c3ccccc3)nn12	inconclusive [phenotype inactive, single point]
COc1ccc(Oc2nc3c(C)cccn3c(=O)c2/C=C(\C#N)c2nc3ccccc3[nH]2)cc1	inactive
Cc1cc(C)c2sc(N3CCN(C(=O)C4CC4)CC3)nc2c1	inactive
COc1ccc(CNC(=O)c2nc(S(=O)(=O)Cc3ccccc3)ncc2Cl)cc1	active: 5.32 µM
Cc1cc(C)c2nc(NC(=O)c3ccc(S(=O)(=O)N4CCC(C)CC4)cc3)sc2c1	inconclusive [phenotype inactive, single point]
COc1ccc(C(=O)Nc2ccccc2-c2nc3ccccc3s2)c(OC)c1	inconclusive [phenotype inactive, single point]
CC(=O)Nc1ccc(Nc2ncnc3c2c(-c2ccccc2)cn3-c2ccc(C)c(Cl)c2)cc1	inconclusive [phenotype inactive, single point]
CCOc1ccccc1NC(=O)c1cc2c(=O)n(Cc3cccnc3)ccc2nc1C	inconclusive [phenotype inactive, single point]
CCc1ccc(-c2nc(CSCC(=O)N3CCN(c4ccc(F)cc4)CC3)c(C)o2)cc1	inconclusive [phenotype inactive, single point]
Cc1ccc(NC(=O)c2cn(-c3ccccc3)nc2-c2ccccc2)cc1	inconclusive [phenotype inactive, single point]
COc1ccc(Nc2ncnc3onc(-c4ccc(Cl)cc4)c23)cc1Cl	inconclusive [phenotype inactive, single point]
COc1ccc(-c2cc(C)no2)cc1S(=O)(=O)N1CCN(c2ccc(C(C)=O)cc2)CC1	inconclusive [phenotype inactive, single point]
CCc1ccc(NC(=O)CN(c2ccc(C)cc2)S(=O)(=O)c2c(C)nn(C)c2C)cc1	inconclusive [phenotype inactive, single point]
CCOc1ccccc1NC(=O)c1cc2ccc3cccnc3c2[nH]1	inactive
Cc1cccc(-c2nnc(SCC(=O)NC3CCCCC3)o2)c1	inactive

SMILES	Potency
Cc1ccc2oc3c(c(=O)c2c1)C(c1cccc(O)c1)N(CCCN1CCOCC1)C3=O (centres undefined)	inconclusive [phenotype inactive, single point]
COc1ccc(NC(=O)c2c(NCc3ccc(C)o3)sc3c2CCC(C)C3)cc1 (centres undefined)	inconclusive [phenotype inactive, single point]
COc1ccc(NC(=O)c2c(NC(=O)COc3ccc(Cl)cc3)sc3c2CCCCC3)cc1	inconclusive [phenotype inactive, single point]
O=C(NCCCN1CCN(c2ccc(F)cc2)CC1)c1cc2c(s1)-c1ccccc1OC2	inconclusive [phenotype inactive, partial curve]
COc1ccc(N(CC(=O)N2CCN(c3cc(C)ccc3C)CC2)S(=O)(=O)c2c(C)noc2C)cc1	inconclusive [phenotype inactive, single point]
COCCNC(=O)CSc1nnc(-c2ccc(OC)c(OC)c2)c(-c2ccc(OC)c(OC)c2)n1	inconclusive [phenotype inactive, single point]
O=C(NC1CC(=O)N(c2ccccc2)C1)C1CCCC1 (centres undefined)	inconclusive [phenotype inactive, single point]
COC(=O)c1c(NC(=O)c2ccc(S(=O)(=O)N3CCCCC3C)cc2)sc2c1CCN(C(C)C)C2 (centres undefined)	inconclusive [phenotype inactive, single point]
Cc1cccc(Cn2c(C)c(C)c3cc(C(=O)NCc4ccc(C)o4)ccc32)c1	inconclusive [phenotype inactive, partial curve]
COc1ccc(-c2cccc(NS(=O)(=O)c3cc(C)c(Cl)cc3C)c2)nn1	inconclusive [phenotype inactive, single point]
Cc1ccc2nc(/C(C#N)=C/c3ccc(-c4cccc(Cl)c4)o3)[nH]c2c1	inconclusive [phenotype inactive, partial curve]
O=C(Nc1ccc(S(=O)(=O)N2CCC(c3nc4ccccc4s3)CC2)cc1)c1ccccc1F	inconclusive [phenotype inactive, single point]
COc1ccccc1NC(=O)CSc1ncc2c(n1)-c1cc(Cl)ccc1N(C)S2(=O)=O	inactive
Cc1ccc(SCC(=O)Nc2ccc3oc(-c4cccc(C)c4)nc3c2)cc1	inactive
COc1ccc(CCNC(=O)C(=O)NCC(c2cccs2)S(=O)(=O)c2ccccc2)cc1 (centres undefined)	inconclusive [phenotype inactive, single point]
Cc1cccc(NC(=O)c2c(Br)sc3c2CCCC3)c1	inconclusive [phenotype inactive, single point]
Cc1ccc(C)c(S(=O)(=O)c2nnn3c2nc(N2CCCCC2)c2sccc23)c1	inconclusive [phenotype inactive, partial curve]
Cn1cc(-c2cc3n(n2)CCC(=O)N3CCCC(=O)Nc2ccccc2F)c2ccccc21	inconclusive [phenotype inactive, single point]
CCCCN(CC)Cc1ccc(CNS(=O)(=O)c2cc3c(cc2Cl)NC(=O)CO3)o1	inactive
